# Laboratory results published in the supplement of paper PMC8728848.
# The list shows a part of the results.
# What was measured:
# Experiment in all cases: glycan array binding signal (z-score within array); higher = stronger binding
# Conditions in all cases: glycan notation: IUPAC condensed, linker removed
# [1] = target: GlcNAc(b1-2)[GlcNAc(b1-4)]Man(a1-3)[GlcNAc(b1-4)][GlcNAc(b1-2)[GlcNAc(b1-6)]Man(a1-6)]Man(b1-4)GlcNAc(b1-4)GlcNAc
# In short: (§1)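 Glycan array binding is given as a within-array Z-score, which can be read as non-binding when negative. The arrays, 3228 of them, came from the Consortium for Functional Glycomics database and were retained only where the protein sequence was available. Z-scores were averaged across arrays of the same protein sequence at different concentrations or buffers and across linkers.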
# [2] = target: GlcNAc(b1-2)[GlcNAc(b1-4)]Man(a1-3)[GlcNAc(b1-4)][GlcNAc(b1-2)[GlcNAc(b1-6)]Man(a1-6)]Man(b1-4)GlcNAc(b1-4)[Fuc(a1-6)]GlcNAc
# In short: as §1
# [3] = target: GlcNAc(b1-2)[GlcNAc(b1-6)]Man(a1-6)[GlcNAc(b1-2)Man(a1-3)]Man(b1-4)GlcNAc(b1-4)GlcNAc
# In short: as §1
# [4] = target: GlcNAc(b1-2)[GlcNAc(b1-6)]Man(a1-6)[GlcNAc(b1-2)Man(a1-3)]Man(b1-4)GlcNAc(b1-4)[Fuc(a1-6)]GlcNAc
# In short: as §1
# [5] = target: GlcNAc(b1-2)[GlcNAc(b1-6)]Man(a1-6)[GlcNAc(b1-4)][GlcNAc(b1-2)Man(a1-3)]Man(b1-4)GlcNAc(b1-4)GlcNAc
# In short: as §1
# [6] = target: GlcNAc(b1-3)Fuc
# In short: as §1
# [7] = target: GlcNAc(b1-3)Gal
# In short: as §1
# [8] = target: GlcNAc(b1-3)Gal(b1-3)GalNAc
# In short: as §1
# [9] = target: GlcNAc(b1-3)Gal(b1-4)Glc
# In short: as §1
# [10] = target: GlcNAc(b1-3)Gal(b1-4)GlcNAc
# In short: as §1
# [11] = target: GlcNAc(b1-3)Gal(b1-4)GlcNAc(b1-2)Man(a1-3)[GlcNAc(b1-3)Gal(b1-4)GlcNAc(b1-2)Man(a1-6)]Man(b1-4)GlcNAc(b1-4)GlcNAc
# In short: as §1
# [12] = target: GlcNAc(b1-3)Gal(b1-4)GlcNAc(b1-2)Man(a1-3)[GlcNAc(b1-3)Gal(b1-4)GlcNAc(b1-2)Man(a1-6)]Man(b1-4)GlcNAc(b1-4)[Fuc(a1-6)]GlcNAc
# In short: as §1
# [13] = target: GlcNAc(b1-3)Gal(b1-4)GlcNAc(b1-2)[GlcNAc(b1-3)Gal(b1-4)GlcNAc(b1-6)]Man(a1-6)[GlcNAc(b1-3)Gal(b1-4)GlcNAc(b1-2)Man(a1-3)]Man(b1-4)GlcNAc(b1-4)GlcNAc
# In short: as §1
# [14] = target: GlcNAc(b1-3)Gal(b1-4)GlcNAc(b1-3)Gal(b1-4)GlcNAc
# In short: as §1
# [15] = target: GlcNAc(b1-3)Gal(b1-4)GlcNAc(b1-3)Gal(b1-4)GlcNAc(b1-2)Man(a1-3)[GlcNAc(b1-3)Gal(b1-4)GlcNAc(b1-3)Gal(b1-4)GlcNAc(b1-2)Man(a1-6)]Man(b1-4)GlcNAc(b1-4)GlcNAc
# In short: as §1
# [16] = target: GlcNAc(b1-3)Gal(b1-4)GlcNAc(b1-3)Gal(b1-4)GlcNAc(b1-2)Man(a1-3)[GlcNAc(b1-3)Gal(b1-4)GlcNAc(b1-3)Gal(b1-4)GlcNAc(b1-2)Man(a1-6)]Man(b1-4)GlcNAc(b1-4)[Fuc(a1-6)]GlcNAc
# In short: as §1
# [17] = target: GlcNAc(b1-3)Gal(b1-4)GlcNAc(b1-3)Gal(b1-4)GlcNAc(b1-2)[GlcNAc(b1-3)Gal(b1-4)GlcNAc(b1-3)Gal(b1-4)GlcNAc(b1-6)]Man(a1-6)[GlcNAc(b1-3)Gal(b1-4)GlcNAc(b1-3)Gal(b1-4)GlcNAc(b1-2)Man(a1-3)]Man(b1-4)GlcNAc(b1-4)[Fuc(a1-6)]GlcNAc
# In short: as §1
# [18] = target: GlcNAc(b1-3)Gal(b1-4)GlcNAc(b1-3)Gal(b1-4)GlcNAc(b1-3)Gal(b1-4)GlcNAc(b1-2)Man(a1-3)[GlcNAc(b1-3)Gal(b1-4)GlcNAc(b1-3)Gal(b1-4)GlcNAc(b1-3)Gal(b1-4)GlcNAc(b1-2)Man(a1-6)]Man(b1-4)GlcNAc(b1-4)GlcNAc
# In short: as §1
# [19] = target: GlcNAc(b1-3)Gal(b1-4)GlcNAc(b1-3)Gal(b1-4)GlcNAc(b1-3)Gal(b1-4)GlcNAc(b1-2)Man(a1-3)[GlcNAc(b1-3)Gal(b1-4)GlcNAc(b1-3)Gal(b1-4)GlcNAc(b1-3)Gal(b1-4)GlcNAc(b1-2)Man(a1-6)]Man(b1-4)GlcNAc(b1-4)[Fuc(a1-6)]GlcNAc
# In short: as §1
# [20] = target: GlcNAc(b1-3)Gal(b1-4)GlcNAc(b1-3)Gal(b1-4)GlcNAc(b1-3)Gal(b1-4)GlcNAc(b1-2)[GlcNAc(b1-3)Gal(b1-4)GlcNAc(b1-3)Gal(b1-4)GlcNAc(b1-3)Gal(b1-4)GlcNAc(b1-6)]Man(a1-6)[GlcNAc(b1-3)Gal(b1-4)GlcNAc(b1-3)Gal(b1-4)GlcNAc(b1-3)Gal(b1-4)GlcNAc(b1-2)Man(a1-3)]Man(b1-4)GlcNAc(b1-4)[Fuc(a1-6)]GlcNAc
# In short: as §1
# [21] = target: GlcNAc(b1-3)Gal(b1-4)GlcNAc(b1-3)Gal(b1-4)GlcNAc(b1-3)Gal(b1-4)GlcNAc(b1-3)Gal(b1-4)GlcNAc(b1-2)Man(a1-3)[GlcNAc(b1-3)Gal(b1-4)GlcNAc(b1-3)Gal(b1-4)GlcNAc(b1-3)Gal(b1-4)GlcNAc(b1-3)Gal(b1-4)GlcNAc(b1-2)Man(a1-6)]Man(b1-4)GlcNAc(b1-4)GlcNAc
# In short: as §1
# [22] = target: GlcNAc(b1-3)Gal(b1-4)GlcNAc(b1-3)Gal(b1-4)GlcNAc(b1-3)Gal(b1-4)GlcNAc(b1-3)Gal(b1-4)GlcNAc(b1-2)Man(a1-3)[GlcNAc(b1-3)Gal(b1-4)GlcNAc(b1-3)Gal(b1-4)GlcNAc(b1-3)Gal(b1-4)GlcNAc(b1-3)Gal(b1-4)GlcNAc(b1-2)Man(a1-6)]Man(b1-4)GlcNAc(b1-4)[Fuc(a1-6)]GlcNAc
# In short: as §1
# [23] = target: GlcNAc(b1-3)Gal(b1-4)GlcNAc(b1-3)Gal(b1-4)GlcNAc(b1-3)Gal(b1-4)GlcNAc(b1-3)Gal(b1-4)GlcNAc(b1-2)[GlcNAc(b1-3)Gal(b1-4)GlcNAc(b1-3)Gal(b1-4)GlcNAc(b1-3)Gal(b1-4)GlcNAc(b1-3)Gal(b1-4)GlcNAc(b1-6)]Man(a1-6)[GlcNAc(b1-3)Gal(b1-4)GlcNAc(b1-3)Gal(b1-4)GlcNAc(b1-3)Gal(b1-4)GlcNAc(b1-3)Gal(b1-4)GlcNAc(b1-2)Man(a1-3)]Man(b1-4)GlcNAc(b1-4)[Fuc(a1-6)]GlcNAc
# In short: as §1
# [24] = target: GlcNAc(b1-3)Gal(b1-4)GlcNAc(b1-3)Gal(b1-4)GlcNAc(b1-3)GalNAc
# In short: as §1
# [25] = target: GlcNAc(b1-3)Gal(b1-4)GlcNAc(b1-3)GalNAc
# In short: as §1
# [26] = target: GlcNAc(b1-3)Gal(b1-4)GlcNAc(b1-3)[GlcNAc(b1-3)Gal(b1-4)GlcNAc(b1-3)]GalNAc
# In short: as §1
# [27] = target: GlcNAc(b1-3)Gal(b1-4)GlcNAc(b1-6)[Gal(b1-3)]GalNAc
# In short: as §1
# [28] = target: GlcNAc(b1-3)Gal(b1-4)GlcNAc(b1-6)[GlcNAc(b1-3)Gal(b1-3)]GalNAc
# In short: as §1
# [29] = target: GlcNAc(b1-3)Gal(b1-4)GlcNAc(b1-6)[GlcNAc(b1-3)]Gal(b1-4)GlcNAc
# In short: as §1
# [30] = target: GlcNAc(b1-3)GalNAc
# In short: as §1
# [31] = target: GlcNAc(b1-3)Man
# In short: as §1
# [32] = target: GlcNAc(b1-3)[GlcNAc(b1-4)][GlcNAc(b1-6)]GlcNAc
# In short: as §1
# [33] = target: GlcNAc(b1-3)[GlcNAc(b1-6)]Gal(b1-4)GlcNAc
# In short: as §1
# [34] = target: GlcNAc(b1-3)[GlcNAc(b1-6)]GalNAc
# In short: as §1
# [35] = target: GlcNAc(b1-4)Gal(b1-4)GlcNAc
# In short: as §1
# [36] = target: GlcNAc(b1-4)GlcNAc
# In short: as §1
# [37] = target: GlcNAc(b1-4)GlcNAc(b1-4)GlcNAc
# In short: as §1
# [38] = target: GlcNAc(b1-4)GlcNAc(b1-4)GlcNAc(b1-4)GlcNAc(b1-4)GlcNAc
# In short: as §1
binder,measurement,setting,value
PX14343A-bvu-539-29-539 (Bacteroides vulgatus) (protein) DSLTESSSNTFWQTPDDALMALASCYDALQSNQLYNSDQYSLGPLYMDCISDNGGHFNWSGWMEGYDMAMGIHTPSSSIIGSYWKDCYEVISRCNVLIANIDRVDMDASQKAIYQAEAKTIRALMYINLTMTYQDVPFLTAPLTIDEAECEKTDRAAIVAHVMTDLQDAAEVLPQNASSRGHITKGAALSLLGRVALYNEKWDDAIAAYKQVQGLGYSLDPSYAKLFTQSGETSPEIIFAVRYEGPGMSEGAAFNAHWNTPLEAMNGTIDLADAYYCKDGKPTTDTKIAELNGGGGLDVSKPNPAHFENRDPRLYSTLFVPGMLWNGKGGIDTSASNPYANVYGGAAASLSTVYVYKYFDPTDTSNSWDNGQDFYVVRYAEVLLSLAEAMVQKGGYVYSDVTALVNEVRQRADVNMPTVEEVEGTSLSKDELLEVIKHERRVELAFEGLRLFDLYRWKELDKAVANIENERTMYGLAYEARKFNGERDYVWPLPTAELDTNKKLVQHDLWK,glycan array binding signal (z-score),[1],-0.087
same,glycan array binding signal (z-score),[2],-0.396
same,glycan array binding signal (z-score),[3],-0.402
same,glycan array binding signal (z-score),[4],-0.217
same,glycan array binding signal (z-score),[5],-0.208
same,glycan array binding signal (z-score),[6],-0.112
same,glycan array binding signal (z-score),[7],-0.374
same,glycan array binding signal (z-score),[8],-0.175
same,glycan array binding signal (z-score),[9],-0.078
same,glycan array binding signal (z-score),[10],-0.44
same,glycan array binding signal (z-score),[11],-0.114
same,glycan array binding signal (z-score),[12],0.091
same,glycan array binding signal (z-score),[13],-0.094
same,glycan array binding signal (z-score),[14],-0.072
same,glycan array binding signal (z-score),[15],0.153
same,glycan array binding signal (z-score),[16],-0.295
same,glycan array binding signal (z-score),[17],0.035
same,glycan array binding signal (z-score),[18],-0.157
same,glycan array binding signal (z-score),[19],-0.151
same,glycan array binding signal (z-score),[20],-0.241
same,glycan array binding signal (z-score),[21],2.27
same,glycan array binding signal (z-score),[22],0.355
same,glycan array binding signal (z-score),[23],0.319
same,glycan array binding signal (z-score),[24],0.227
same,glycan array binding signal (z-score),[25],-0.331
same,glycan array binding signal (z-score),[26],-0.113
same,glycan array binding signal (z-score),[27],-0.357
same,glycan array binding signal (z-score),[28],-0.363
same,glycan array binding signal (z-score),[29],-0.311
same,glycan array binding signal (z-score),[30],-0.233
same,glycan array binding signal (z-score),[31],-0.249
same,glycan array binding signal (z-score),[32],-0.368
same,glycan array binding signal (z-score),[33],-0.27
same,glycan array binding signal (z-score),[34],0.118
same,glycan array binding signal (z-score),[35],-0.308
same,glycan array binding signal (z-score),[36],-0.324
same,glycan array binding signal (z-score),[37],-0.345
same,glycan array binding signal (z-score),[38],-0.313
